The list shows a part of the results. These are noisy estimates, calculated here from bound and input reads.
molecular target: T1, Pho4 (S. cerevisiae) (UniProt P07270); assay: relative binding free energy (BET-seq); higher = weaker binding; conditions: reference: library average
T1 sequence: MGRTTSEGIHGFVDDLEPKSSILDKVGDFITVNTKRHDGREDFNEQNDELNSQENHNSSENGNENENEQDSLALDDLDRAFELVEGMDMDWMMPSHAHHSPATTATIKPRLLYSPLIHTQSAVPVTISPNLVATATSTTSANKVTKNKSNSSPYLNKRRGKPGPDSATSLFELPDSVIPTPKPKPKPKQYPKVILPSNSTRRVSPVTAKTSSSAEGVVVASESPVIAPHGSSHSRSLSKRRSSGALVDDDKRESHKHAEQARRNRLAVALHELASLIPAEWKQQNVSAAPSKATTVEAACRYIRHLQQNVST

Relative binding free energy, -0.18 kcal/mol:
ATTCGCACGTGGTAGG
AGGGCCACGTGTGTTG
TAGGGCACGTGTCTCG

Relative binding free energy, -0.21 kcal/mol:
TGAGGCACGTGGGTAC

Relative binding free energy, 0.18 kcal/mol:
TTGTTCACGTGCGTCG
GTTGTCACGTGCTATT
TGGGTCACGTGACATG

Relative binding free energy, 0.36 kcal/mol:
TAGTTCACGTGTGCCG
TGTTACACGTGAGACG

Relative binding free energy, -0.23 kcal/mol:
TGGAGCACGTGCGAGG
TAGGGCACGTGCTTGT

Relative binding free energy, 0.28 kcal/mol:
GGGATCACGTGTAGAA

Relative binding free energy, 0.33 kcal/mol:
TAATTCACGTGTTACG

Relative binding free energy, -0.1 kcal/mol:
ACGGGCACGTGCGGAT
ATGCGCACGTGTTCGT
TCTGGCACGTGTATGT
AAGGACACGTGGTGAT

Relative binding free energy, -0.09 kcal/mol:
AGGTGCACGTGCGTGG
GAGGGCACGTGGTAGT
TGTAACACGTGCATTG

Relative binding free energy, 0.3 kcal/mol:
AGTTTCACGTGTTTTG
CTTTTCACGTGTTAGC
GGTGGCACGTGAAGCT
GACTTCACGTGTGTTT

Relative binding free energy, -0.12 kcal/mol:
GCTTGCACGTGGTATT
AAGAACACGTGTGTTT
TTACACACGTGGGGAT
TAGCACACGTGGGAGG
AGGTGCACGTGGGAGA

Relative binding free energy, 0.35 kcal/mol:
CGGTGCACGTGAGTTC
TTACTCACGTGAGGTT

Relative binding free energy, 0.29 kcal/mol:
GAGGGCACGTGAAGCA
GTTTTCACGTGAGGGC

Relative binding free energy, 0.12 kcal/mol:
AGGGTCACGTGTTCAG
AGGAGCACGTGAGGCG
CCGTCCACGTGTGGGG
GCAGGCACGTGATGTT

Relative binding free energy, 0.2 kcal/mol:
TGTTACACGTGAGTGA
GGGAACACGTGTGGTT
TAATTCACGTGCGGGG
TTTGACACGTGAGGAG

Relative binding free energy, 0.02 kcal/mol:
GATGACACGTGGTCGT
TTTATCACGTGCTGGC
TATGCCACGTGAAGGG
GTGTGCACGTGGTACA

Relative binding free energy, 0.31 kcal/mol:
TGGTTCACGTGCAATT
GTGGTCACGTGGATTA
ATGGTCACGTGTAAAT
GAATTCACGTGTAGGA

Relative binding free energy, 0.03 kcal/mol:
TTGGGCACGTGTCAGC
GTTGACACGTGCGTAT
TTAGGCACGTGACATG
ATGGGCACGTGAGTTA
TGTGTCACGTGCCAGG

Relative binding free energy, 0.09 kcal/mol:
AGTTACACGTGCTTTA
TTTCTCACGTGGGGGT
CTTTGCACGTGAGCGT
GTCGACACGTGTTTGT
GGTGGCACGTGTTGTG
TTTGTCACGTGTCTAA
AGAGGCACGTGAGTAG
AATGTCACGTGTGAGC

Relative binding free energy, 0.07 kcal/mol:
GTACTCACGTGGGGGG
GTTTCCACGTGGGGTG
GTATGCACGTGATCAT
TCTTGCACGTGTGGGG

Relative binding free energy, 0.32 kcal/mol:
TTTGGCACGTGAAAGG
GTGGACACGTGAGAGT
GGCGTCACGTGATGGA

Relative binding free energy, -0.01 kcal/mol:
CGTGGCACGTGTCGGG
GAGGGCACGTGGAATA
AGTAACACGTGTTGAA
AGCTACACGTGGTGTA
TTGTACACGTGGATGC

Relative binding free energy, 0.17 kcal/mol:
AGATTCACGTGGAGGG
CGTGTCACGTGAATGT
ACTGTCACGTGTTAAT
TTTCACACGTGTTTTC
GGTTGCACGTGTCTGC
GGTCTCACGTGTGGCG
GAGGGCACGTGTTCAA

Relative binding free energy, -0.04 kcal/mol:
ATTTGCACGTGTTGCA
TCTGGCACGTGTTGCA
CATGTCACGTGGGCGT

Relative binding free energy, 0.39 kcal/mol:
GGGTTCACGTGAGTGG

Relative binding free energy, 0.23 kcal/mol:
GTCGTCACGTGTCGTA
TGGTCCACGTGTGTTT

Relative binding free energy, 0.45 kcal/mol:
GAGTTCACGTGTTAAG

Relative binding free energy, -0.02 kcal/mol:
GGGGACACGTGGGCAT
CAGGTCACGTGTGCGT
TGGAGCACGTGTTGGG
GTGTGCACGTGGGGAA

Relative binding free energy, 0.25 kcal/mol:
ATCTTCACGTGGTGAA
AGTCTCACGTGTCGTG
AAGTTCACGTGATGTA

Relative binding free energy, -0.36 kcal/mol:
AGGCGCACGTGGCGTG

Relative binding free energy, -0.29 kcal/mol:
CGGCGCACGTGGCGGG

Relative binding free energy, 0.37 kcal/mol:
GTGGTCACGTGAGGTA
GTTTACACGTGAGTCG

Relative binding free energy, 0.44 kcal/mol:
TTCGTCACGTGAGATA

Relative binding free energy, -0.26 kcal/mol:
CGTAGCACGTGTATGT
GGAACCACGTGGGTGG

Relative binding free energy, 0.19 kcal/mol:
TATATCACGTGTCTAT
AAAGTCACGTGATATG
CAGGTCACGTGTGGCA
GGTGACACGTGTGGAG

Relative binding free energy, 0.43 kcal/mol:
TAAATCACGTGTGATT

Relative binding free energy, 0.26 kcal/mol:
GTCTTCACGTGGGTTC
GGATTCACGTGCATGG

Relative binding free energy, 0.27 kcal/mol:
TGTTTCACGTGCTGAG
TATTTCACGTGGGCGC

Relative binding free energy, 0 kcal/mol:
TGGGTCACGTGGCAAT
TTGAGCACGTGTTAAG
AGCGTCACGTGCGGAG
GTTAGCACGTGGGATT
CGTGTCACGTGCGTTA
GTGGTCACGTGGTTCA
TGTAGCACGTGTATGC

Relative binding free energy, 0.21 kcal/mol:
TGTTTCACGTGCACGG
TGTTACACGTGTGTTC
GTTTTCACGTGGTGAG
TGGCTCACGTGTTGTA

Relative binding free energy, -0.17 kcal/mol:
TGTGGCACGTGCTGTG
TTAGACACGTGGTTGT
AGGGCCACGTGTGTGA

Relative binding free energy, 0.24 kcal/mol:
ACGGTCACGTGAGGCG
GGGCACACGTGTTGGT
AGTTTCACGTGTGCAT

Relative binding free energy, -0.06 kcal/mol:
GTGGGCACGTGGACTT
CGTATCACGTGGTGCG
TGATCCACGTGGGCGT
GGGAGCACGTGCGGCG
ATGGACACGTGGTCAG

Relative binding free energy, -0.08 kcal/mol:
CATAGCACGTGTATGT
GTTGGCACGTGCGAAG
TGTGGCACGTGCGATA
CTTGGCACGTGATTTT
GCCGGCACGTGGAGTG

Relative binding free energy, 0.1 kcal/mol:
AAAGACACGTGTAGGT
TTCTACACGTGAGGTG
CAGATCACGTGGTTTG
TGTTACACGTGGGCCT
GGGGACACGTGGACTG

Relative binding free energy, 0.13 kcal/mol:
AATCGCACGTGCAGGT
CATTACACGTGTTGTA
TTTGTCACGTGTTTTT
TAAGTCACGTGTACAT

Relative binding free energy, 0.05 kcal/mol:
CGTGACACGTGTCTGG

Relative binding free energy, 0.52 kcal/mol:
AAATTCACGTGAGGGG

Relative binding free energy, -0.05 kcal/mol:
CATTGCACGTGGCGGG
TGAGACACGTGGTGTC
AGCAACACGTGGCGGG
TGGTCCACGTGCTGGG

Relative binding free energy, 0.01 kcal/mol:
GCGTGCACGTGTATTG
TGTAACACGTGATCGT

Relative binding free energy, -0.16 kcal/mol:
GTGCCCACGTGGGCGG
GTCGCCACGTGGGGTT
GAGGCCACGTGGGGTT
TGTAACACGTGGTCTG

Relative binding free energy, -0.11 kcal/mol:
TGAGCCACGTGGTGGT
ATTGGCACGTGGCTGG

Relative binding free energy, 0.14 kcal/mol:
ACGGACACGTGTAGGG
TTGGTCACGTGTTTGT
TATCACACGTGCGGTA
GGATCCACGTGGTAGG
TAGTTCACGTGGGTAA
TGTCTCACGTGTCTTG
ACGGTCACGTGGATTG

Relative binding free energy, 0.48 kcal/mol:
GAATTCACGTGTTAGA

Relative binding free energy, 0.11 kcal/mol:
GACAGCACGTGTTGGG
GATGGCACGTGTAAGC
AATGCCACGTGTATTT
GGGTGCACGTGTCGGC
TGTGCCACGTGAGGGG
GTTACCACGTGTGATT

Relative binding free energy, -0.3 kcal/mol:
TGAGCCACGTGGGCGT
CGAAGCACGTGGGGTG

Relative binding free energy, 0.4 kcal/mol:
CGGTTCACGTGTGGCA

Relative binding free energy, -0.07 kcal/mol:
TGTTGCACGTGGCTGG
GTAAGCACGTGTATTT
GTGGACACGTGGGCGC
TTTGCCACGTGGCTGG
GGTGGCACGTGTTTAT
CTGGACACGTGTGCGG
GGGTGCACGTGGCTAA

Relative binding free energy, -0.24 kcal/mol:
CGGGGCACGTGGTTAG
TTGCGCACGTGGGTAA

Relative binding free energy, -0.13 kcal/mol:
CGTGGCACGTGTGTTT
AAGGCCACGTGGTTAG

Relative binding free energy, -0.2 kcal/mol:
GGAAGCACGTGGGTGT
CGTAGCACGTGGCGTG

Relative binding free energy, 0.38 kcal/mol:
GATTTCACGTGTAAAG
TTTTTCACGTGAGACA

Relative binding free energy, 0.08 kcal/mol:
GATGGCACGTGTGCTT
CGGTACACGTGGGAAT
TTGTACACGTGGTTTA

Relative binding free energy, -0.14 kcal/mol:
TGGGGCACGTGCGTGA
CTGGGCACGTGTTTGA
ATTTGCACGTGGCATG
TGTGACACGTGCTGTA
TGCAGCACGTGGTGAA
GGAGGCACGTGGGTTC

Relative binding free energy, -0.19 kcal/mol:
ATTGGCACGTGCCGGG

Relative binding free energy, 0.06 kcal/mol:
GAATGCACGTGGTTTA
TTAGTCACGTGGCTTA
TGTAGCACGTGAGTGC
AGGTGCACGTGATTGG
ATATACACGTGTGCAT
CGATGCACGTGTTGAG
GTATCCACGTGTTTTT

Relative binding free energy, 0.22 kcal/mol:
ATCCTCACGTGTTGGG
TAATTCACGTGTACGT
TGTAACACGTGATAAG
GAAAACACGTGTTAGG
ATCGTCACGTGTATTA
AATTACACGTGGAAGG

Relative binding free energy, 0.15 kcal/mol:
TAAGTCACGTGTGCGC
TGGATCACGTGGTGGC
GGTAGCACGTGAGAGG

Relative binding free energy, 0.16 kcal/mol:
TTGCACACGTGGATAG
GTGATCACGTGGATCG
TCAATCACGTGGTTTT
ATTTGCACGTGTAGCG

Relative binding free energy, -0.15 kcal/mol:
TCGGCCACGTGGGTTT
AGGGCCACGTGGTTGA

Relative binding free energy, -0.03 kcal/mol:
GGGGCCACGTGTATTG

Relative binding free energy, 0.04 kcal/mol:
ATGAGCACGTGATGTA
TATCGCACGTGATAGG
AGACGCACGTGTGGAG
CTTGTCACGTGGTAGG
